Reference: the RNAGym collection of RNA variant scans (doi:10.1093/nar/gkz1192)
The source gives no read counts; variants with many changes may rest on few reads.

B1: CPEB3 Ribozyme (parent)
chain: UAACAGGGGGCCACAGCAGAAGCGUUCACGUCGCAGCCCCUGUCAGAUUCUGGUGAAUCUGCGAAUUCUGCUGUAUAUCUC

Variants of: B1
Test: self-cleavage, relative activity (ratio to wild type); higher = more cleavage; in vitro, sequencing
Summary of the method: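 Libraries of CPEB3 self-cleaving ribozyme mutants came from rounds of error-prone PCR and carried barcodes, which DNA sequencing matched to variants. In vitro transcription used T7 RNA polymerase at 37°C for 5 hours, with a further 15 min in DNase I before EDTA stopped the reaction; the ribozymes cleaved during both steps. The RNA was reverse transcribed with template switching and sequenced on Illumina. Relative activity is the cleaved/total read fraction of a variant divided by that of the unmutated ribozyme, averaged over three batches with at least 5 reads.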

| Variant | self-cleavage |
| --- | --- |
| A21G U26C U67C A77G | 0.07 |
| A21G U26C A35U A45G A56G U72C U74C | 0.02 |
| A21G U49C U72A | 0.07 |
| A21G G24A A28G U31C A45G | 0.24 |
| A21G U26C A56G U72C | 0.51 |
| A21G U49C A56G U69A | 0.26 |
| A21G U25C U43C U69C C81U | 0.02 |
| A21G U49C U72C U76C | 0.19 |
| A21G U41C A57G | 0.51 |
| A21U A35G A64G A75U | 1.13 |
| A21G U43C U51C U76C | 0.18 |
| A21G U25A U54A A64U U78G | 0.12 |
| A21U A35U U49C U58C U78C | 0.06 |
| A21G U25C A35G C79U | 0.1 |
| A21G U26A U67A U72C | 0.23 |
| A21G U26C U41C U54C A57C | 0.32 |
| A21G U54A U74C | 1.06 |
| A21G U41C A57G A64G U76C | 0.24 |
| A21G U31C C38U U51A | 0.1 |
| A21G U43C U51C A64G | 0.09 |
| A21G U41A A64G | 0.15 |
| A21G U31C A75U U80A | 0.45 |
| A21G U31G G52A U60A | 0.12 |
| A21G U41G A47G U66A U67C | 0.34 |

| Variant | self-cleavage |
| --- | --- |
| A21G G61A A64G | 0.41 |
| A21G C62U U76C | 0.11 |
| A21G U25A A35U G52U U67C | 0.06 |
| A21G U31C U80C | 0.38 |
| A21G U25G U26A A35U G42A U72C | 0.05 |
| A21G U25C A28G U43A U60C | 0.05 |
| A21G U26A C59A U78C | 0.07 |
| A21G U72A U76C | 0.32 |
| A21G U25C C39U | 0.17 |
| A21G G30U U51C U78C | 0.06 |
| A21G U26A U49A | 0.2 |
| A21G U31C C68G | 0.08 |
| A21G G22A U26A A47G U58C | 0.12 |
| A21G U31C U49G A56G A75U | 0.07 |
| A21G C40A U41A A47U | 0.17 |
| A21G G42U U49C C59U | 0.04 |
| A21G G36U A57G U60A | 0.1 |
| A21G U31A U41A G55A | 0.05 |
| A21G U26C U48C G63U | 0.12 |
| A21G U31A U48C | 0.36 |
| A21G G24A U41A U51A | 0.08 |
| A21G C29U C62G A64G | 0.07 |
| A21U A35G A45U A56G U78A | 0.54 |
| A21G U60A U76C | 0.19 |

| Variant | self-cleavage |
| --- | --- |
| A21G C23U U67A U74A | 0.18 |
| A21G U54C U76G | 0.58 |
| A21G U54C U67C | 0.26 |
| A21G U31C U51C U54C | 0.29 |
| A21G U25C A28C U41G A45U U58C U78C | 0 |
| A21G G52A U58A C59A U74A | 0.2 |
| A21G C32A U41C C81U | 0.06 |
| A21G U25A A45C A47G U48C U51A A57G | 0.04 |
| A21G U67A C71U U78C | 0.22 |
| A21G U49C U76C | 0.29 |
| A21G U31C U41A A47U U58A | 0.06 |
| A21G U31C A56G | 0.21 |
| A21G C34A U54G A57G U66C | 0.03 |
| A21G G22C U43C | 0.06 |
| A21G U31C A45G A47G | 0.05 |
| A21G U26C A28C | 0.15 |
| A21G U41C U43A A64U | 0.16 |
| A21G U60A A64G U66C | 0.13 |
| A21G U26C A35U A47G G73A U80A | 0.08 |
| A21G U31C A56U U60C G61U U72C | 0.06 |
| A21G C39G A45U | 0.31 |
| A21G U41A C50U | 0.47 |
| A21G U60G C81A | 0.27 |
| A21G U58A U74G | 0.24 |

| Variant | self-cleavage |
| --- | --- |
| A21G U41A A45U A57G | 0.18 |
| A21G G24A U26C U48C | 0.17 |
| A21G C39U U60G | 0.13 |
| A21U A45C A64G U78C | 0.04 |
| A21G U31C A47G A56G | 0.18 |
| A21G U25A U41A A64U U69C | 0.26 |
| A21G U25A A47U | 0.2 |
| A21G C37U U41A G52C A64U | 0.12 |
| A21G U41A U66A U80C | 0.09 |
| A21G U25C A56G U69A | 0.05 |
| A21G U25A A47G U78C | 0.25 |
| A21G U41A A57C A64G | 0.15 |
| A21G U60C U74G | 0.69 |
| A21G U25C U26C U43A U58C U60C | 0.12 |
| A21G U41A U80A | 0.09 |
| A21G U41C A75G | 0.35 |
| A21G C27A A65G | 0.37 |
| A21G U41A A45U U69C | 0.15 |
| A21G C29G A56G | 0.11 |
| A21G C39G U51C | 0.31 |
| A21G U41C U60A U69G | 0.31 |
| A21G C29U G30A A56G U58C | 0.13 |
| A21G G30U A35U U43C C62A A64U | 0.08 |
| A21G C32G G33U A35C A57G U80C | 0.09 |

| Variant | self-cleavage |
| --- | --- |
| A21G U48C G52A U54C C62U | 0.12 |
| A21G U31C U41A C44G A45G | 0.05 |
| A21G U26A A56G | 0.51 |
| A21G U41C U51G A56G A57U U66C | 0.36 |
| A21G C38A A56G C62U | 0.11 |
| A21G U41A U60C A75G | 0.05 |
| A21G U31C A56G A57G C71G U80A | 0.05 |
| A21G C32U U67C | 0.15 |
| A21G U25A U41C | 0.14 |
| A21G U43C A57G | 0.24 |
| A21G G53U A56G A77G | 0.79 |
| A21G U26C U54C A57G U69C | 0.04 |
| A21G C39A A47G U54C U66C A77U | 0.07 |
| A21G U54C A57G | 0.37 |
| A21G U48C U67A | 0.31 |
| A21G U31C U41A U54C U58C U69C | 0 |
| A21G U54A C81U | 0.9 |
| A21G U67A C79U | 0.24 |
| A21G U25C G30A C39A U58C | 0.13 |
| A21G G24A G36C U74C | 0 |
| A21G U41C U54C A64U U66G | 0.11 |
| A21G U41A A65G | 0.3 |
| A21G U31A A45G U60C | 0.16 |
| A21U A28G G53A U72C | 0.15 |

| Variant | self-cleavage |
| --- | --- |
| A21G U43A U54A | 0.71 |
| A21G U41C U54C A57G A65U C79U U80A | 0.11 |
| A21G C27A U41A | 0.27 |
| A21G U26A U58C U74C U78C | 0.17 |
| A21G C32A G46U U51C G63U | 0.1 |
| A21G U54C C79U | 0.66 |
| A21G U48C A56U U58C | 0.18 |
| A21G U25C U26C G46C A64U | 0.16 |
| A21G U25C A28G U48A | 0.26 |
| A21G C44A A45G | 0.21 |
| A21G U25C C68U U74C | 0.16 |
| A21G U41A U48C | 0.33 |
| A21G U54A C79U | 0.85 |
| A21G U72C U74A | 0.82 |
| A21G U43C U48A A57G | 0.09 |
| A21G U25G G52U | 0.39 |
| A21G U25G A65G U72A A77U | 0.05 |
| A21G C39U A45U A57G U60A | 0.11 |
| A21G G55C U69C | 0.16 |
| A21G U26C U41C U43A U60A A77G | 0.1 |
| A21G U25C U41C A64G | 0.29 |
| A21G G22U G33C G55U U72A | 0.06 |
| A21G U25A U41C G55U | 0.07 |
| A21G U31A U60A U66A | 0.14 |

| Variant | self-cleavage |
| --- | --- |
| A21U A35G U48C U69C | 0.18 |
| A21G U25C A45G A57G | 0.18 |
| A21G U25A U48C U51C U72C U78A | 0.06 |
| A21G G53A A77U | 0.72 |
| A21G U41C G63A U80A | 0.56 |
| A21G C32U A45G U48C U72A | 0.05 |
| A21G G24A U26C U69A | 0.11 |
| A21G U41C C44U | 0.12 |
| A21G G53C U72C A77G | 0.68 |
| A21G G63U U80C | 0.77 |
| A21G U43C U67C | 0.17 |
| A21G U72C U78C | 0.7 |
| A21G U26A U72G | 0.37 |
| A21G U41A A47G | 0.32 |
| A21G U60A U80C | 0.28 |
| A21G G24A U31C U51A | 0.15 |
| A21G U41C A45G A64U U78A | 0.23 |
| A21G U25C A35G U54C | 0.22 |
| A21G U41G C68G | 0.04 |
| A21G U60C U78A | 0.17 |
| A21G U54C G73C | 1.19 |
| A21G U31C U43C A64U C68G | 0.06 |
| A21G U41C A45G U48C U51C | 0 |
